Patent US20230117205A1, “B7-H4 ANTIBODY-DRUG CONJUGATES FOR THE TREATMENT OF CANCER” (SEAGEN INC., priority 2021, published 2023)

Experiments:
[1] = molecular target: T1, recombinant human B7-H4 protein (Homo sapiens, UniProt Q7Z7D3); assay: BLI binding to recombinant human B7-H4 (monovalent and bivalent formats); conditions: mAb compared with ADC
T1 construct: B7-H4 extracellular domain Phe29-Ala258 with a C-terminal 10-His tag
T1 sequence (Q7Z7D3 29-258): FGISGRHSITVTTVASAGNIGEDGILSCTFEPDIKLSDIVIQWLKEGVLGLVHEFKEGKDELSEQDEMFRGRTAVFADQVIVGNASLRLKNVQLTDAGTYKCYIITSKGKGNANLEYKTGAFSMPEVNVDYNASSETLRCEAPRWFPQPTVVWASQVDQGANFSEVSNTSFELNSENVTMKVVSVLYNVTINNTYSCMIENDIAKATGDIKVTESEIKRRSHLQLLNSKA

[2] = tested on: MDA-MB-468 tumor and PBMC co-cultures; assay: Tumor/PBMC co-culture assay; format: cell-based, human; conditions: tumor/immune cell co-cultures
Method: Tumor cells were transfected with Incucyte® Cytolight red lentivirus per manufacturer's instructions and stable polyclonal cell populations expressing mKate2 (red fluorescent protein, RFP) were generated under puromycin selection. Live-cell killing assays were performed by seeding RFP+ MDA-MB-468 tumor cells in 96-well flat bottom plates (Corning #3603) at a variety of densities (3,750-10,000 cells/well) and grown overnight. The following day, PBMCs isolated from healthy donors were added at 15:1 or 25:1 effector to target (E:T) ratios and cultures were treated with the indicated small molecule drugs or ADCs. To evaluate immune cell activation, supernatants were harvested between 120 and 144 hours post treatment and MIP-1β production was evaluated by Milliplex MAP Human cytokine/chemokine/growth factor panel A (12-plex) Immunology Multiple Assay (Millipore Sigma #HCYTA-60K-12C). […] Following the final wash, cell pellets were resuspended in 200 μL staining buffer and analyzed on an NXT Attune flow cytometer (ThermoFisher). Flow cytometry data were analyzed using FlowJo software and monocyte activation was quantified by measuring the MFI of CD86 staining on CD14+ monocytes within the RFP−/live/CD19−/CD3−/CD14+ gate.

[3] = tested on: SKBR3, MX-1, and 293T-B7-H4; assay: NK cell-mediated ADCC; format: cell-based, human; conditions: NK effector cells, 4 hours
Description: Antibodies directed to cell surface antigens can elicit direct killing of antibody-coated cells, including induction of ADCC.
Human PBMCs were thawed into pre-warmed R10+ Media (RPMI 1640 (Gibco #11875-093) with 10% HI-FBS (Gibco #16140-071), 1× sodium pyruvate (Gibco #11360-070), and 1× GlutaMax (Gibco #35050-061)) and then an EasySep NK isolation kit (StemCell #17955) was used to purify NK cells. Target tumor cells were lifted off using TrypLE Express (Gibco #12604-021) and then plated into a U-bottom plate (Falcon #353077) at 40,000 cells/well (50 μL/well) for MX-1 and 293T-B7-H4 (HEK 293T cells engineered to express human B7-H4) and 20,000 cells/well (50 μL/well) for SKBR3 cell line. […] (NOTE: actual starting concentration was 6000 ng/mL to account for the inherent 3× dilution of the assay.) Then 200,000 cells/well (50 μL/well) of isolated NK cells were plated into the U-bottom plate (effector: tumor ratios were as follows: NK:SKBR3 cells 10:1; NK:MX1 cells 5:1, NK:293T-B7-H4 cells 5:1). Appropriate controls included: positive control mAb and ADC and negative non-binding control mAb and ADC, NK cells only control, target cells only control, target cells maximum lysis control, and media only control. […] A CytoTox 96 Non-Radioactive Cytotoxicity Assay kit (Promega #G1780) was used to develop the signal, which was read using 490 nm wavelength on a SpectraMax 190 instrument.

[4] = tested on: MDA-MB-468 xenograft tumors; assay: MDA-MB-468 xenograft, single dose, tumor volume; format: in vivo, NSG mice; conditions: single 3 mg/kg dose, i.p.
Method: Tumors were harvested 7 days after treatment, cut in half, and processed for RNA-seq or IHC. […]
Specifically, female NSG mice were implanted with 1×10^6 MDA-MB-468 cells in 25% Matrigel H C subcutaneously. Once tumor volumes reached ˜250-300 mm^3, mice were randomized into treatment groups of 6 mice each and treated with a single 3 mg/kg dose of ADC or mAb, or vehicle control (20 mM Histidine buffer, pH 6.0) injected intraperitoneally (i.p.). Stock concentrations of ADC were diluted to desired concentration with 20 mM Histidine buffer, pH 6.0 or and stock concentration of mAb were diluted to desired concentration with 0.01% Tween20 in PBS. Twenty-four hours prior to dosing, each animal was treated with 10 mg/kg hIVIG. One week following treatment, tumors were harvested, cut in half, and processed for RNAseq (frozen at −80° C.) or formalin-fixed and paraffin-embedded for immunohistochemical (IHC) analysis.

B1: B7H41001 mAb (antibody)
heavy: QLQLQESGPGLVKPSETLSLTCTVSGGSIKSGSYYWGWIRQPPGKGLEWIGNIYYSGSTYYNPSLRSRVTISVDTSKNQFSLKLSSVTAADTAVYYCAREGSYPNQFDPWGQGTLVTVSS[human IgG1 constant region not listed]
light: EIVMTQSPATLSVSPGERATLSCRASQSVSSNLAWYQQKPGQAPRLLIYGASTRATGIPARFSGSGSGTEFTLTISSLQSEDFAVYYCQQYHSFPFTFGGGTKVEIKRTVAAPSVFIFPPSDEQLKSGTASVVCLLNNFYPREAKVQWKVDNALQSGNSQESVTEQDSKDSTYSLSSTLTLSKADYEKHKVYACEVTHQGLSSPVTKSFNRGEC
modifications: non-natural residues; cyclised or stapled
[1]
  binding affinities for hB7-H4: similar
[2]
  CD86 on CD14+ monocytes: not
  release of MIP-1β/CCL4: not
[3]
  ADCC response: comparable ADCC responses
[4]
  tumor volume: not
